This is an account of results in article PMC4242493.

The list shows a part of the results. The list includes weakly bound sequences.

This experiment concerns the target MaxL homodimer (UniProt P61244). The experiment is described as follows: universal protein-binding microarray (PBM). Conditions: PBS-based mixture, 10 nM His-tagged protein dimer, 2% milk, 200 ng/uL BSA, 50 ng/uL salmon testes DNA, 0.02% TX-100; detection with Alexa 488 anti-His …; high values mean tight binding; most listed sequences are background and not binding sites; double strand, one strand shown.
Chain of UniProt P61244 (P61244 whole entry): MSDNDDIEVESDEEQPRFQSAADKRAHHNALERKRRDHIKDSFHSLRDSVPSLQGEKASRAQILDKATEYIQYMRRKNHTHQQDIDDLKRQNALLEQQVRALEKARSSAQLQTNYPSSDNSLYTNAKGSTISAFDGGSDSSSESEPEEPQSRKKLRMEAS
Turning to CCTAATGC, the binding signal (normalized occupancy) was 0.0805.
Consider ACTCGATA, for which the binding signal (normalized occupancy) stood at 0.0762.
The value for AATTGCTA was 0.0737; that for CTTCTCGC was 0.0731; that for GACTCGAA was 0.0679.
Consider AAGTAACT, for which the binding signal (normalized occupancy) is 0.0683.
On to GGTATAAA, for which the binding signal (normalized occupancy) came to 0.0837.
Turning to AAGTCTCT, the binding signal (normalized occupancy) is 0.0732.
AAGGTAAT: the binding signal (normalized occupancy) came to 0.0741.
The value for CAGCCGGG was 0.0671.
The result for CTCTTGCA reads 0.0725; that for AGTTGGCA, 0.0767; that for TCCTCTCA, 0.0711.
ATTTTCTA: the binding signal (normalized occupancy) was 0.0856.
AGGGAAGG: the binding signal (normalized occupancy) was determined as 0.0787.
Take ACATATTC: the binding signal (normalized occupancy) was found to be 0.0874.
The value for GAAGAGGA was 0.0698; that for AGCGAGTA was 0.0732; that for CAGAGAGC was 0.0689.
With AGCTCACC, the binding signal (normalized occupancy) stood at 0.0704.
As for AAACTTCT, the binding signal (normalized occupancy) came out at 0.0684.
As to AGGGATGC, the binding signal (normalized occupancy) was 0.0814.
AGTCTGCG: the binding signal (normalized occupancy) is 0.0711.
As for CCATTGCG, the binding signal (normalized occupancy) was 0.0729.
In the case of AAAGAGAC, the binding signal (normalized occupancy) turned out to be 0.0712.
For ATGGTGCG, the binding signal (normalized occupancy) was 0.0824.
In the case of ACGGAGTA, the binding signal (normalized occupancy) worked out at 0.0708.
For the sequence CTAATCTC, the binding signal (normalized occupancy) worked out at 0.0732.
With TCGCCGAA, the binding signal (normalized occupancy) was found to be 0.0729.
On to ATACTAAG, for which the binding signal (normalized occupancy) was 0.0715.
Regarding ACCTTAAT, the binding signal (normalized occupancy) was determined as 0.0764.
On to CACGCTGA, for which the binding signal (normalized occupancy) was found to be 0.115.
The result for AACGGATT reads 0.0695.
The value for AAGCTGGC was 0.0661; that for GTCGTCAA was 0.0747; that for CCGGGTAA was 0.0757.
The value for AACATCTA was 0.0821; that for AGAACAAT was 0.0787; that for CAAGCTTG was 0.0708.
For CCCAGTAC, the binding signal (normalized occupancy) worked out at 0.0737.
As for ACACACCC, the binding signal (normalized occupancy) is 0.083.
Consider AGAAAATG, for which the binding signal (normalized occupancy) came to 0.0762.
As for ACCTGGTA, the binding signal (normalized occupancy) amounted to 0.0753.
The result for GGCGCTAC reads 0.0692; that for GTTCCGTA, 0.0742; that for GGATGCCA, 0.0814.
Consider CTCCCCCC, for which the binding signal (normalized occupancy) came to 0.0761.
GGCAGTCA: the binding signal (normalized occupancy) was found to be 0.0686.
The result for TGAACCAA reads 0.0739.
Consider CTAATTTA, for which the binding signal (normalized occupancy) turned out to be 0.0726.
As to ACACCTCG, the binding signal (normalized occupancy) was found to be 0.0873.
As for ATCCGCGA, the binding signal (normalized occupancy) amounted to 0.0775.
Turning to AAGGTAGC, the binding signal (normalized occupancy) was 0.0707.
Consider AGCTTACC, for which the binding signal (normalized occupancy) worked out at 0.071.
The value for GGCCACCA was 0.0737; that for CTATACAC was 0.0863.
Consider CGGTAGAC, for which the binding signal (normalized occupancy) was 0.0717.
In the case of AATCTCGG, the binding signal (normalized occupancy) was determined as 0.0691.
The result for GGCTGAAA reads 0.0709.
CGGAAAAC: the binding signal (normalized occupancy) is 0.0727.
As to AAAAGCCC, the binding signal (normalized occupancy) is 0.0715.
On to GATAGGAA, for which the binding signal (normalized occupancy) was 0.0756.
On to ATGCATTG, for which the binding signal (normalized occupancy) is 0.0823.
Turning to AATTGCAA, the binding signal (normalized occupancy) is 0.0749.
Take TCGACGAA: the binding signal (normalized occupancy) was found to be 0.0694.
Regarding ATTACAAA, the binding signal (normalized occupancy) came to 0.0745.
Take CAATCCTA: the binding signal (normalized occupancy) was determined as 0.0718.
ACCTGCAC: the binding signal (normalized occupancy) was 0.0789.
With CGTCCCGA, the binding signal (normalized occupancy) is 0.0685.
For CTCGCAAC, the binding signal (normalized occupancy) stood at 0.0718.
In the case of CAATATGG, the binding signal (normalized occupancy) turned out to be 0.0892.
For GACCAAGA, the binding signal (normalized occupancy) was 0.0725.
As to CATCTGGA, the binding signal (normalized occupancy) worked out at 0.0746.
Regarding ATTACTGA, the binding signal (normalized occupancy) is 0.075.
Regarding GTTCCAAA, the binding signal (normalized occupancy) was determined as 0.0745.
With CACCCCCA, the binding signal (normalized occupancy) is 0.0838.
The value for CGAGCGGC was 0.0633.
CGGACGAA: the binding signal (normalized occupancy) was 0.0664.
For the sequence GCATTGAA, the binding signal (normalized occupancy) was 0.0779.
The value for CCGCTCCC was 0.068; that for AAATATAA was 0.0776; that for AAGAACGC was 0.0719.
On to AAAGGAGT, for which the binding signal (normalized occupancy) is 0.0709.
As to CGTGGGAC, the binding signal (normalized occupancy) was 0.096.
On to GCGAAAGA, for which the binding signal (normalized occupancy) was found to be 0.0745.
Regarding GTAAATCA, the binding signal (normalized occupancy) amounted to 0.0784.
For CTGGTATC, the binding signal (normalized occupancy) was 0.0757.
On to CAGCTATG, for which the binding signal (normalized occupancy) was determined as 0.0733.
Take CGATCCCG: the binding signal (normalized occupancy) is 0.0749.
Consider GTTCCGAA, for which the binding signal (normalized occupancy) was determined as 0.0707.
For CGAAAGGA, the binding signal (normalized occupancy) came to 0.0662.
The value for ATGGACGG was 0.0788; that for AATGCTGT was 0.078; that for CAACCCAA was 0.0765.
Consider GCTCCAAA, for which the binding signal (normalized occupancy) was found to be 0.071.
The value for AAGCATGA was 0.101.
As for CAAGTTCC, the binding signal (normalized occupancy) was found to be 0.072.
TATGGCGA: the binding signal (normalized occupancy) stood at 0.079.
With GTACGTGA, the binding signal (normalized occupancy) turned out to be 0.078.
In the case of AGATAATG, the binding signal (normalized occupancy) is 0.0779.
The value for ATAATTCC was 0.0859.
CAGTAGGG: the binding signal (normalized occupancy) turned out to be 0.0763.
Take GCATTCAC: the binding signal (normalized occupancy) is 0.0843.
The result for CTTGCTCA reads 0.0741.
GAGAGCTA: the binding signal (normalized occupancy) was 0.0719.
For the sequence AATTATTA, the binding signal (normalized occupancy) was found to be 0.0745.
For CCAAGCGG, the binding signal (normalized occupancy) stood at 0.0669.
The value for GAGCGAAC was 0.0704; that for GACACCGC was 0.071; that for GGAAGCTA was 0.0684.
